# Test results taken from ChEMBL document CHEMBL4888484, “Replenishing the malaria drug discovery pipeline: Screening and hit evaluation of the MMV Hit Generation Library 1 (HGL1) against asexual blood stage Plasmodium falciparum ,using a nano luciferase reporter read-out” (2022).
# Hit rate of the full screen: of about 150,000 compounds, about 540 (0.36%) showed an effect of 50% or more. Some of the results follow.
# Tested on: Plasmodium falciparum
# Assay: Primary screen in NF54 nanoGlo assay, in single point, at 2uM, 72h; a lower Z score goes with more inhibition
# Assay type: functional, Erythrocyte
# Settings: timepoint 72 hour
SMILES,% Inhibition [%],Z score
COc1ccccc1CC(=O)Nc1cnn(-c2ncc(N3CCCC3)cn2)c1,-10,1.59
C[C@](O)(CNS(=O)(=O)CC1CCCC1)C1CC1,-2,0.2
Cc1cc(C)n(CCN(C)Cc2nnc(C)s2)n1,-17,1.6
CCN1C(=O)Cc2cc(NC(=O)Cc3ccc(OC)cc3)ccc21,-12,1.4
CCc1nc(CN2CCN(S(=O)(=O)c3ccccc3)CC2)no1,-15,2.66
Cc1noc(C)c1C(=O)NC[C@H]1CCCN(c2nnnn2-c2ccccc2)C1,-10,1.02
Cc1c(F)cccc1NC(=O)N1CC(Cc2nncn2C(C)C)C1,-7,1.23
CC1CN(CC(O)COC2CCCCC2)CC(C)O1 (stereo not given),-14,1.3
COC(=O)[C@@H](C)CN(C)c1nc(C2CC2)no1,5,-0.76
CC(=O)NC1CCN(C(=O)N(c2ccccc2)c2ccccc2)CC1,-2,0.17
Cc1oc(-c2ccccc2)nc1CN1C(=O)N[C@](C)(c2cc(F)ccc2F)C1=O,1,-0.19
COCCn1c(CO)nnc1[C@H]1C[C@@H](NC(=O)c2ccn(C)c2C)C1,-8,1.29
CC1=C(C(=O)N2C3CCC2CC(=O)NC3)CCC1 (stereo not given),-2,0.31
CCS(=O)(=O)N1CCC(N2C[C@H](OCCOC)C23CCCCC3)CC1,-3,0.57
COC(=O)N1CC[C@H](Nc2ncccc2C#N)C1,-5,0.76
Cc1cc(C)c(CNC(=O)c2c[nH]nc2-c2ccccc2)c(=O)[nH]1,-8,0.7
Cc1noc([C@H](C)NC(=O)c2cccnc2O)n1,29,-3.26
COc1nccnc1N[C@@H](CN1CCCC1)C(C)(C)C,-5,0.88
COC(=O)c1ccc(CN(CCNC(=O)C(C)C)C(=O)C(C)C)cc1,-2,0.26
Cc1ccc(S(=O)(=O)N2CC[C@H](OCC3CC3)C2)cc1Cl,-9,1.38
O=C(Cc1nnc(-c2ccncc2)o1)NCc1ccccc1C(F)(F)F,-13,1.32
O=C(CC[C@H]1CCCO1)Nc1cnc2[nH]ncc2c1,-10,1.84
N#Cc1sccc1-c1ccccc1CN1CCOCC1,-4,0.72
O=S(=O)(CCCc1cn[nH]c1)Cc1cccc2ccccc12,-4,0.39
c1cnn(-c2cncc(NCCCN3CCOCC3)n2)c1,-4,0.44
